Drawing on PMC7819943, “Rice protein-binding microarrays: a tool to detect cis-acting elements near promoter regions in rice”, this text covers binding signal for 42 sequences.

The other results are listed elsewhere or left out.

The target in the experiment is T1, OsWOX13 (Oryza sativa, UniProt Q5QMM3 1-267).
T1 sequence: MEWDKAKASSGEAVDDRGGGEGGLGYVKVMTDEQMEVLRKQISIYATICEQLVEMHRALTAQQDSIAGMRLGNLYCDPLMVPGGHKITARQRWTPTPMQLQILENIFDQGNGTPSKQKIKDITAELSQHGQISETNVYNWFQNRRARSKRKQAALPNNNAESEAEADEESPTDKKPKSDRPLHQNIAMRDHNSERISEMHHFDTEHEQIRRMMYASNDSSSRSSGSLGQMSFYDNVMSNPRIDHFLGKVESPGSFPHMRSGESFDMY
Put plainly: protein-binding microarray (RPBM); PBS, 2% BSA, 51.3 ng/ul salmon testes DNA, 50 uM zinc acetate, 200 nM TF, 25 C, 1 h; high values mean tight binding. Conditions: protein: recombinant; tags: N-terminal polyhistidine and DsRed monomer fusion (pET32a); label: CyDye5-dUTP incorporated in the synthesized complementary strand; 3' TTTTT single-stranded linker to array surface; dsDNA, one strand shown. Summed up: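 Transcription factors, each fused N-terminally to a polyhistidine tag and DsRed, were expressed in E. coli BL21-CodonPlus and purified on Ni–NTA. A custom Agilent array was made double-stranded by primer extension with Cy5-dUTP and blocked with 2% BSA. It was incubated with 200 nM protein in PBS, 2% BSA, salmon testes DNA and 50 µM zinc acetate at 25 °C for 1 h, then washed. The binding signal is per-feature fluorescence intensity (arbitrary units) read on an Axon 4000B scanner.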
On to “AAGTGATTGACCGGATTATTACTGAGGGGAATATGCTCGGCGGAGTCACCTAGTGCAG”, for which the binding signal was 47800 fluorescence intensity (a.u.). For the sequence “GTTACAATTACACATGATTTAATTGGCCCTACCATATTCTCGGAGTCACCTAGTGCAG”, the binding signal was 49400 fluorescence intensity (a.u.). Under “TCTTAATGTAGAAATTGAATTTCCTTCTAAAAGAAATCAGCGGAGTCACCTAGTGCAG” stands 12100 fluorescence intensity (a.u.). As to “ACAGCTGACGAATTGATGTATTGCATCAGGCCCTCTTCAACGGAGTCACCTAGTGCAG”, the binding signal is 4780 fluorescence intensity (a.u.). Consider “ATTTGATGCCACTTTTAATTTACTTTCCCATTTTAATGTACGGAGTCACCTAGTGCAG”, for which the binding signal was 5300 fluorescence intensity (a.u.). Under “AAAATTAACATGGTAAATTAATATGATATATATCACTCTACGGAGTCACCTAGTGCAG” stands 24400 fluorescence intensity (a.u.); under “GGTAGATTGGCCGGAACAAAGCGAAGAAAAGGTGGCCTCACGGAGTCACCTAGTGCAG”, 22800 fluorescence intensity (a.u.); under “ATTTGTCAATTGATAGATCTGCTCCTCATCCAAGCTCCATCGGAGTCACCTAGTGCAG”, 24900 fluorescence intensity (a.u.).

Turning to “GACGAATATATTATACCTAATTACTCTTCTATTATTTGATCGGAGTCACCTAGTGCAG”, the binding signal is 3590 fluorescence intensity (a.u.). Under “CATGATTAATTTTAGGCCGGTCATTGCTCGTGTCCTTGTTCGGAGTCACCTAGTGCAG” stands 65300 fluorescence intensity (a.u.); under “AATTAATCCATTATTAACAAATGTTTACTGTAGCATCACACGGAGTCACCTAGTGCAG”, 5300 fluorescence intensity (a.u.). Under “CCCCTACCAGATGATTTGTCTTGCTTTGTATTAATGGGTGCGGAGTCACCTAGTGCAG” stands 4790 fluorescence intensity (a.u.); under “CTAACCGTCCATTGATTAGCTAGCTAACTTAGAGATAGATCGGAGTCACCTAGTGCAG”, 34100 fluorescence intensity (a.u.); under “TGAAAGCATGATCTAGATAATTTATGTGCTACACAATTTGCGGAGTCACCTAGTGCAG”, 3300 fluorescence intensity (a.u.). Turning to “GGTAAGATTTGTCAGCTTAATTTGTCTATCTGCATATTAGCGGAGTCACCTAGTGCAG”, the binding signal is 16200 fluorescence intensity (a.u.). Under “GAAAACATACAAATTAACTCAAGAAATGGCCAAATTAAAGCGGAGTCACCTAGTGCAG” stands 10700 fluorescence intensity (a.u.).

Turning to “AAGCAAATGATAATTATTGCAAGTTCCTAACAAAATATTGCGGAGTCACCTAGTGCAG”, the binding signal was 5850 fluorescence intensity (a.u.). Under “ATGATAGATTTAGATGAAGTTTAACTTGGAATAGCCATACCGGAGTCACCTAGTGCAG” stands 44200 fluorescence intensity (a.u.); under “ATGTAAGATGGTAATAGTAGATTGAAGATGCACCACAATGCGGAGTCACCTAGTGCAG”, 4350 fluorescence intensity (a.u.); under “TTGCGCAAATTAATCTTTCTAGAAATCAAAGGGCTCAGGGCGGAGTCACCTAGTGCAG”, 4600 fluorescence intensity (a.u.).

For “TTAAATTTGTAGTTTTGTGATGTCAAAATACATGTAATTTCGGAGTCACCTAGTGCAG”, the binding signal is 16900 fluorescence intensity (a.u.). Turning to “CAATAGATTTGGTCTAAATTTAGTTAAAATTTATCGAAAACGGAGTCACCTAGTGCAG”, the binding signal is 11400 fluorescence intensity (a.u.). For the sequence “ACTAATTAGAAGTACTAAATAGAGACTAATGATAAAACCCCGGAGTCACCTAGTGCAG”, the binding signal was 36100 fluorescence intensity (a.u.). Consider “CCAATTAGATGAGTTAGGTAAGTGATAAAGCATTCGTAACCGGAGTCACCTAGTGCAG”, for which the binding signal is 3220 fluorescence intensity (a.u.). Under “GTACTAATTATGTACTCAGGTTTGGAAGTAGAGTCTACGTCGGAGTCACCTAGTGCAG” stands 26000 fluorescence intensity (a.u.). Under “TGAAAATTTATAGAGGACAAATGGGTGGACATATATAGGGCGGAGTCACCTAGTGCAG” stands 3270 fluorescence intensity (a.u.); under “AACACACTCAGTTAAATTGGCACTATTTTATCAGCTCATTCGGAGTCACCTAGTGCAG”, 3850 fluorescence intensity (a.u.).

“GTTGATTATAGATGATTTCAAGCCAACAGTTGGCTATAGGCGGAGTCACCTAGTGCAG”: the binding signal was 35100 fluorescence intensity (a.u.).

Turning to “TTTTATGATTAGTATTTTCATTGTTGTTAAATGATAAAACCGGAGTCACCTAGTGCAG”, the binding signal was 23800 fluorescence intensity (a.u.). Consider “GTAGATGATTAATTTAGAATGGAGGGAGTAGAAGCTAAGACGGAGTCACCTAGTGCAG”, for which the binding signal was 24300 fluorescence intensity (a.u.). Under “TGCTCCAACGTAATTTGTTCCAAGTGTCTCTGCTCTTCAGCGGAGTCACCTAGTGCAG” stands 3150 fluorescence intensity (a.u.).

For the sequence “CCCGTCCCTAATTAACCGCCGTTCCTCTCGCGCCTCACCACGGAGTCACCTAGTGCAG”, the binding signal is 12500 fluorescence intensity (a.u.). Take “GTTGAGGAATTGATTATAAACGTAGAGGAATAACAATGGACGGAGTCACCTAGTGCAG”: the binding signal was 13800 fluorescence intensity (a.u.).

For “TTTAAAATTAGATAAATTTTAGCTGCGGCTGACAACACGACGGAGTCACCTAGTGCAG”, the binding signal was 9360 fluorescence intensity (a.u.).

As to “AGACAGATTGGGATGAATCAAATGTCCAGCCTACGTGGACCGGAGTCACCTAGTGCAG”, the binding signal is 16200 fluorescence intensity (a.u.). Regarding “TTCCATACTTAAATTTAATGCTACTTATCTCACATGAAGTCGGAGTCACCTAGTGCAG”, the binding signal was 4110 fluorescence intensity (a.u.). Turning to “TTCCAAGACAATTGACATCAGGACACAAGCAGGTAGTTAACGGAGTCACCTAGTGCAG”, the binding signal is 3690 fluorescence intensity (a.u.). “ATTAAATACATTTAATTATGCCCTTGTACATATTCTCCGCCGGAGTCACCTAGTGCAG”: the binding signal is 19600 fluorescence intensity (a.u.). Under “CAAAGTTTATAAATGATTGGATTATATGGTGTCTTTTGGACGGAGTCACCTAGTGCAG” stands 27400 fluorescence intensity (a.u.). Under “ACTAATTGGACAGTTTGCATATAAATCGCGAGACGGATCTCGGAGTCACCTAGTGCAG” stands 39200 fluorescence intensity (a.u.). The value for “ACAAATTGTTTACGTGCGTCAGGCCGCCGCTGTGATGACACGGAGTCACCTAGTGCAG” was 6260 fluorescence intensity (a.u.). Turning to “ATGCAATCAAAGGATTTAATTAGAGATGATGCTACAGATCCGGAGTCACCTAGTGCAG”, the binding signal is 21300 fluorescence intensity (a.u.).
